In the supplement of paper PMC8728848:
The other results are listed elsewhere or left out.

Columns and labels:
Experiment in all cases: glycan array binding signal (z-score within array); higher = stronger binding
Conditions in all cases: glycan notation: IUPAC condensed, linker removed
[1] = target: Gal3S(b1-3)[Fuc(a1-4)]GlcNAc
Procedure, shortened: (§1)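 The binding signal is a Z-score computed within each array. Data were drawn from 3228 arrays in the Consortium for Functional Glycomics database, restricted to those with a known protein sequence. Scores were averaged over arrays of the same protein sequence at different concentrations or buffers, and over linkers, and negative values can be taken as non-binding.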

Gal3S(b1-4)Glc = target: Gal3S(b1-4)Glc
Procedure, shortened: as §1

Gal3S(b1-4)Glc6S = target: Gal3S(b1-4)Glc6S
Procedure, shortened: as §1

Gal3S(b1-4)GlcNAc = target: Gal3S(b1-4)GlcNAc
Procedure, shortened: as §1

Gal3S(b1-4)GlcNAc6S = target: Gal3S(b1-4)GlcNAc6S
Procedure, shortened: as §1

[2] = target: Gal3S(b1-4)[Fuc(a1-3)]Glc
Procedure, shortened: as §1

Gal3S4S(b1-4)GlcNAc = target: Gal3S4S(b1-4)GlcNAc
Procedure, shortened: as §1

Gal3S6S(b1-4)GlcNAc = target: Gal3S6S(b1-4)GlcNAc
Procedure, shortened: as §1

Gal3S6S(b1-4)GlcNAc6S = target: Gal3S6S(b1-4)GlcNAc6S
Procedure, shortened: as §1

Gal4S(b1-4)GlcNAc = target: Gal4S(b1-4)GlcNAc
Procedure, shortened: as §1

Gal4S6S(b1-4)GlcNAc = target: Gal4S6S(b1-4)GlcNAc
Procedure, shortened: as §1

Gal6S(b1-4)Glc = target: Gal6S(b1-4)Glc
Procedure, shortened: as §1

Gal6S(b1-4)Glc6S = target: Gal6S(b1-4)Glc6S
Procedure, shortened: as §1

Gal6S(b1-4)GlcNAc = target: Gal6S(b1-4)GlcNAc
Procedure, shortened: as §1

Gal6S(b1-4)GlcNAc6S = target: Gal6S(b1-4)GlcNAc6S
Procedure, shortened: as §1

GalNAc(a1-3)Gal = target: GalNAc(a1-3)Gal
Procedure, shortened: as §1

GalNAc(a1-3)GalNAc = target: GalNAc(a1-3)GalNAc
Procedure, shortened: as §1

GalNAc(b1-3)Gal = target: GalNAc(b1-3)Gal
Procedure, shortened: as §1

[3] = target: GalNAc(b1-3)Gal(a1-4)Gal(b1-4)GlcNAc
Procedure, shortened: as §1

[4] = target: GalNAc(b1-3)Gal(a1-4)Gal(b1-4)GlcNAc(b1-3)Gal(b1-4)Glc
Procedure, shortened: as §1

GalNAc(b1-3)GalNAc = target: GalNAc(b1-3)GalNAc
Procedure, shortened: as §1

GalNAc(b1-4)GlcNAc = target: GalNAc(b1-4)GlcNAc
Procedure, shortened: as §1

[5] = target: GalNAc(b1-4)GlcNAc(b1-2)Man(a1-3)[GalNAc(b1-4)GlcNAc(b1-2)Man(a1-6)]Man(b1-4)GlcNAc(b1-4)GlcNAc
Procedure, shortened: as §1

Glc(a1-4)Glc = target: Glc(a1-4)Glc
Procedure, shortened: as §1

Glc(a1-6)Glc(a1-6)Glc = target: Glc(a1-6)Glc(a1-6)Glc
Procedure, shortened: as §1

Glc(b1-4)Glc = target: Glc(b1-4)Glc
Procedure, shortened: as §1

Glc(b1-6)Glc = target: Glc(b1-6)Glc
Procedure, shortened: as §1

GlcA(b1-3)Gal = target: GlcA(b1-3)Gal
Procedure, shortened: as §1

GlcA(b1-3)GlcNAc = target: GlcA(b1-3)GlcNAc
Procedure, shortened: as §1

GlcA(b1-6)Gal = target: GlcA(b1-6)Gal
Procedure, shortened: as §1

[6] = target: GlcNAc(a1-3)Gal(b1-4)GlcNAc
Procedure, shortened: as §1

[7] = target: GlcNAc(a1-4)Gal(b1-3)GlcNAc
Procedure, shortened: as §1

[8] = target: GlcNAc(a1-4)Gal(b1-4)GalNAc
Procedure, shortened: as §1

[9] = target: GlcNAc(a1-4)Gal(b1-4)GlcNAc
Procedure, shortened: as §1

[10] = target: GlcNAc(a1-4)Gal(b1-4)GlcNAc(b1-3)Gal(b1-4)Glc
Procedure, shortened: as §1

[11] = target: GlcNAc(a1-4)Gal(b1-4)GlcNAc(b1-3)Gal(b1-4)GlcNAc
Procedure, shortened: as §1

[12] = target: GlcNAc(a1-4)Gal(b1-4)GlcNAc(b1-3)Gal(b1-4)GlcNAc(b1-3)Gal(b1-4)GlcNAc
Procedure, shortened: as §1

[13] = target: GlcNAc(a1-4)Gal(b1-4)GlcNAc(b1-3)Gal(b1-4)[Fuc(a1-3)]GlcNAc(b1-3)Gal(b1-4)[Fuc(a1-3)]GlcNAc
Procedure, shortened: as §1

B1: Flo5 (Saccharomyces cerevisiae), P38894 (protein)
chain: MGSSHHHHHHSSGLVPRGSHMSGATEACLPAGQRKSGMNINFYQYSLKDSSTYSNAAYMAYGYASKTKLGSVGGQTDISIDYNIPCVSSSGTFPCPQEDSYGNWGCKGMGACSNSQGIAYWSTDLFGFYTTPTNVTLEMTGYFLPPQTGSYTFSFATVDDSAILSVGGSIAFECCAQEQPPITSTNFTINGIKPWDGSLPDNITGTVYMYAGYYYPLKVVYSNAVSWGTLPISVELPDGTTVSDNFEGYVYSFDDDLSQSNCTIPDPSIH
glycan array binding signal (z-score) [1]: -0.224
glycan array binding signal (z-score) (Gal3S(b1-4)Glc): 0.161
glycan array binding signal (z-score) (Gal3S(b1-4)Glc6S): 8.31
glycan array binding signal (z-score) (Gal3S(b1-4)GlcNAc): -0.098
glycan array binding signal (z-score) (Gal3S(b1-4)GlcNAc6S): 0.044
glycan array binding signal (z-score) [2]: -0.104
glycan array binding signal (z-score) (Gal3S4S(b1-4)GlcNAc): -0.198
glycan array binding signal (z-score) (Gal3S6S(b1-4)GlcNAc): -0.031
glycan array binding signal (z-score) (Gal3S6S(b1-4)GlcNAc6S): 0.137
glycan array binding signal (z-score) (Gal4S(b1-4)GlcNAc): 1.47
glycan array binding signal (z-score) (Gal4S6S(b1-4)GlcNAc): 0.123
glycan array binding signal (z-score) (Gal6S(b1-4)Glc): -0.082
glycan array binding signal (z-score) (Gal6S(b1-4)Glc6S): 0.022
glycan array binding signal (z-score) (Gal6S(b1-4)GlcNAc): -0.174
glycan array binding signal (z-score) (Gal6S(b1-4)GlcNAc6S): 0.082
glycan array binding signal (z-score) (GalNAc(a1-3)Gal): -0.054
glycan array binding signal (z-score) (GalNAc(a1-3)GalNAc): -0.225
glycan array binding signal (z-score) (GalNAc(b1-3)Gal): -0.083
glycan array binding signal (z-score) [3]: -0.191
glycan array binding signal (z-score) [4]: -0.103
glycan array binding signal (z-score) (GalNAc(b1-3)GalNAc): -0.197
glycan array binding signal (z-score) (GalNAc(b1-4)GlcNAc): -0.253
glycan array binding signal (z-score) [5]: -0.09
glycan array binding signal (z-score) (Glc(a1-4)Glc): -0.173
glycan array binding signal (z-score) (Glc(a1-6)Glc(a1-6)Glc): -0.181
glycan array binding signal (z-score) (Glc(b1-4)Glc): -0.144
glycan array binding signal (z-score) (Glc(b1-6)Glc): -0.203
glycan array binding signal (z-score) (GlcA(b1-3)Gal): -0.123
glycan array binding signal (z-score) (GlcA(b1-3)GlcNAc): -0.227
glycan array binding signal (z-score) (GlcA(b1-6)Gal): -0.095
glycan array binding signal (z-score) [6]: -0.194
glycan array binding signal (z-score) [7]: -0.071
glycan array binding signal (z-score) [8]: -0.153
glycan array binding signal (z-score) [9]: -0.266
glycan array binding signal (z-score) [10]: -0.192
glycan array binding signal (z-score) [11]: -0.139
glycan array binding signal (z-score) [12]: 0.084
glycan array binding signal (z-score) [13]: 0.989
